Reference: the supplement of paper PMC11417369
Some of the results follow.

These sequences were tested on PF3D7_0420300 AP2 domain 1 (GST-tagged) (assay: gcPBM binding intensity (ln(normalized median fluorescence intensity)); higher = stronger DNA binding).
How it was run: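 An Agilent 4 × 180k array of primer-extended double-stranded 36-bp intergenic genomic probes, with negative controls, was incubated for 1 h with GST-tagged P. falciparum DNA-binding domains expressed in E. coli. Alexa488 anti-GST antibody detected bound protein, scanned at 488 nm. Binding intensity is the highest Masliner-normalised natural-log median intensity across replicate spots of either probe orientation.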

| Sequence | gcPBM binding intensity (ln) |
| --- | --- |
| TTAAATAAAAAAATAACACACATATAAATCTATATG [CACACA_site7482] | 9.52 |
| TATCAGCAATGGAAAACATGCAAAAAATTAATATAT [TGCATGCA_site623] | 9.25 |
| TCTTCAAAGACACAATCACACACATACATAAATATA [CACACA_site8128] | 9.7 |
| AATACGTTTCAAAAATGTACACATATATCATAAATA [XGTACX_site8962] | 9.17 |
| ATCAAAAATGTTATATATATATATATATATATATAT [TGCATGCA_negctrl_site71] | 9 |
| TATATAATTCAAAAATGTACATGAAATATAAATATT [XGTACX_site7984] | 9.29 |
| TGATTCTTTTCAAAGTGTACAGTAATTTTTATGTAA [XGTACX_site8452] | 8.95 |
| ATATTATAAATTATAGGTACACACAAAAAAAAAAAG [XGTACX_site2637] | 9.85 |
| ATATCAAGCTATGAGAAAAAAAAAAAGAAAAAAAAA [CACACA_negctrl_site1370] | 8.92 |
| AAATATATTGCATATATACACACGTATATATATTAA [CACACA_site2759] | 9.24 |
| AAGTTTTCTTAAAGATGTACTTTTTAAAAATAAAAT [XGTACX_site3063] | 8.83 |
| TCTACATCTGTATATAAACACACAACAAAAATGCTT [CACACA_site9271] | 9.33 |
| GTATATATGTATGTATGTACTTATAAAGTTGCATAT [XGTACX_site5616] | 9.24 |
| ACTTTATTATATATTTGTACATATATTTTTAATTTC [XGTACX_site4144] | 9.53 |
| TATTTATTGTGATACTTATATTATTTCATGATTAAT [CACACA_negctrl_site738] | 9.26 |
| TTCTTACACAAAAAAATGAAATCAATCAAAAAAAAA [CACACA_negctrl_site869] | 9.07 |
| TATATATTTCAATAATGTACATATAATATATATATT [XGTACX_site4124] | 9.13 |
| AATGTGTAGACACGCACACACAAAAAAATATTTATA [CACACA_site7384] | 9.6 |
| AAATTATATATAAAATGTACATATGTAGGTAATTTT [XGTACX_site5047] | 9.45 |
| GAAAATATATTTAAGATGCACTTTAAAAATGTACTT | 9.05 |
| AAGTAATCATCATAAAGTACTAAATTATATTGTCAA [XGTACX_site5841] | 9.18 |
| ACATTCTGATGGTGATTATTAATTATTACAAAAATT [CACACA_negctrl_site283] | 9.05 |

| Sequence | gcPBM binding intensity (ln) |
| --- | --- |
| TTTTATTTTCGATGATGTACATTAAATTATACAGTA [XGTACX_site6053] | 8.98 |
| AAATATTACTCCTCAAGTACACATAAAAAAAAAATA [XGTACX_site2085] | 9.26 |
| AATATACAAAATAAATAAAATATATATATATATATA [CACACA_negctrl_site216] | 9.29 |
| TATTTTTTTTGATATTGTACTTTTTTATTATTTTTT [XGTACX_site566] | 9.56 |
| TAAAAATTTAAGAAAACATGCATCTAACATATATAT [TGCATGCA_site342] | 9.27 |
| TTGTTTTCACCAAATACACACAAGCATACACCCCAT [CACACA_site2717] | 9.59 |
| TTACATGCTAAAATTTGTACATATATGATAAATATT [XGTACX_site2648] | 9.08 |
| ATACATAAATTTATACGTACATATATAGATACATAA [XGTACX_site675] | 9.3 |
| AAGTAAAATAAGTATACACACATAAATATGTAAATA [CACACA_site6467] | 9.67 |
| TTTTTTTTTTCTTTTTTTTATTATATTAACGGAATT [GTGCAC_negctrl_site104] | 9.05 |
| AAAAAGAAATACAAATAATATATATATATATATATT [TGCATGCA_negctrl_site458] | 9.22 |
| CATAAAAATTGAAGCACACACACAAAAGAAATACAA [CACACA_site1112] | 10.2 |
| AATAAACAAATAAATAAACACACAATATATGTATAT [CACACA_site9268] | 9.8 |
| TTTCTTTAACAAGTTAAACACACATACATATATACA [CACACA_site8810] | 9.27 |
| ATCATTTCTATATAAGCACACACGTGGAATTTTTTT [CACACA_site2786] | 9.57 |
| CACATACAGATATATACACACAAATATAAATACACA [CACACA_site6512] | 9.98 |
| AATAAATATAAAAATGCACACACACTAATAAAAAAA [CACACA_site8201] | 10.2 |
| TTACTTATATGCATAGTGCAAATTTGGTAAATATCT | 9.15 |
| AAAATAAATATATTATCCACGTTGTATATATATATA [XGTACX_negctrl_site136] | 9.34 |
| CAATTTATTATATATGTGCACATATAATTTTACAAA | 8.94 |
| TAATTATTTTTATTGTTGCACTAGTAAAATTTTAAG [GTGCAC_site9946] | 9.11 |
| TACATTTTAATATAAGCATGCCTTTAGTTTTTTTCT [TGCATGCA_site829] | 9.34 |

| Sequence | gcPBM binding intensity (ln) |
| --- | --- |
| AATACAAATATATATGCACACACATATACATACATA [CACACA_site8677] | 9.83 |
| AATATGTAAATATGGGTGCTTTAAAATATATTCATT [GTGCAC_site9583] | 9.27 |
| TTCCAATGATAAAATTGTACTTGAAGAAAATTTTTT [XGTACX_site4607] | 8.77 |
| AGCGTATAACATATGACACACACACCGACATACACA [CACACA_site8532] | 9.93 |
| TACGTATCATAATTTTATTTTATATATATTCACAAA [XGTACX_negctrl_site144] | 9.23 |
| ATATATATATGGAAGTGTACTTATATAGCATACTAG [XGTACX_site5130] | 9.34 |
| AAATTTTTATAATTATCACACATTGAATTGTGGTCT [CACACA_site4343] | 9.22 |
| AACAATTATTGTAATGCATGCACTGAATATAGAAAG [TGCATGCA_site889] | 9.37 |
| ATTCACAAATATATGGTGCATAATATATATATATAT [GTGCAC_site9674] | 9.19 |
| ATATTTTCCCTTTATAGGAGCACAAAAATTAAATGT [CACACA_negctrl_site1114] | 9.06 |
| CAGATAAGATTTTGTGGTACTATTTATTAAATTAGA [XGTACX_site2644] | 9.03 |
| TTATATAACACGGGGAGGACACAAGAAATAAAGAGC [XGTACX_site2148] | 9.96 |
| GCTAATAATAAAAGCATAATGAACAAACACCCAGTA [CACACA_negctrl_site806] | 9.73 |
| TTTTTCTGTTTTTATAGCCTTCTCATAATACATAAA [TGCATGCA_negctrl_site355] | 9.22 |
| TATAATAAATCGAACTGTACATATATATATATATAT [XGTACX_site7097] | 9.11 |
| TATACGCAGAAACACACACACAAAAAAAAAAAAAAA [CACACA_site427] | 9.71 |
| ATTCGGATCTATAAGTGTACACAATCTAGCGAAAAG [XGTACX_site3088] | 9.15 |
| TTTATTCAAATATAATGTACTTTCTACAAATTCAAT [XGTACX_site8119] | 8.99 |
| CATATATAAATATATACACACATATATATATATATA [CACACA_site1365] | 9.23 |
| ATTTTTTTTGCTAAGTGTACACAAATGTTTATTAAT [XGTACX_site7440] | 9.42 |
| TTTATTAAGAAACACACACACACACCCAAAATAAAA [CACACA_site242] | 10 |
| TATAAACAAAACAAAACATGCATAATACTATAAATT [TGCATGCA_site333] | 9.71 |

| Sequence | gcPBM binding intensity (ln) |
| --- | --- |
| TAATTAACTTTATATGCATGTTAAAAATGTTATAAG [TGCATGCA_site761] | 8.97 |
| CTTTATTATAAGATTACACACATGTGTTCTAATTTA [CACACA_site7479] | 9.38 |
| AACAAAATAAAAAGTAATCTTATTTATTAAAATTTT [CACACA_negctrl_site419] | 9.09 |
| TTTTGGTTAATTCCCCCCATTACATTATGTCATGTC [CACACA_negctrl_site229] | 9.81 |
| TTTCATTTTTTTACATGTACGCAAAAGTGTGTAGTT [XGTACX_site6582] | 9.3 |
| TAATACTTATATAAAGGTACACAATTTAACCGAATG [XGTACX_site7173] | 9.25 |
| GTAAATATTCATATATGTACTTATGATATTTGCTAA [XGTACX_site6828] | 8.91 |
| CTTCCTTAGGAATGTACACACATATAAAATATGTTG [CACACA_site6355] | 9.35 |
| AAGAAAGAGTTCTGTTGTACAAAATATTAATATGTA [XGTACX_site7213] | 9.22 |
| ACATATATATATATATATTGATTTATTTATTTCCCT [CACACA_negctrl_site659] | 9.18 |
| ATATATATATATAAATGTACAAAAATATATATGTAA [XGTACX_site4531] | 9.36 |
| CTATTTAAAATATGAACACACATTATTTGTTTTAGA [CACACA_site2713] | 9.2 |
| ATATCATTATATAGTTGTACATATTTATTTATTTAT [XGTACX_site8995] | 9.48 |
| AATATAGGAATATGCACACATATATACCTACATACA [CACACA_site4939] | 9.51 |
| AAAAAAAAAAATACTAGTACGTAAAATTATATAAAT [XGTACX_site3019] | 9.47 |
| ATTTCCCATACACGTTGTACAATGTAGAGAAAGTAT [XGTACX_site4586] | 9.08 |
| GATATGTGTATAATATGTACATATATATATATATAT [XGTACX_site6531] | 9.3 |
| TTTTTGTCTGCATACGCACACACGTGGACCATCTTA [CACACA_site8303] | 9.6 |
| AAAGAAAGAAAACACACACACATATATATATATCAA [CACACA_site3743] | 10.1 |
| TATATATATATATGTACACACACACCGATAAATAAA [CACACA_site8041] | 9.99 |
| TACCACTTTCGAAGTAGTACATGGCTTTTTTTTTTT [XGTACX_site8379] | 9.46 |
| TGTATGTTAAATACAACACACAAAAAAAAACAAGTT [CACACA_site4324] | 9.65 |
